Results are given in words; binding and its absence hold for the method and conditions named. In cells and extracts the contact can be indirect.
Molecular target: full-length wild-type HPK1 with NanoBit tag (UniProt Q92918)
Assay: split reporter; NanoBit in Jurkat cells expressing tagged full-length HPK1; test for HPK1 dimers

Chains of the proteins cited; added tags and fusions are not shown. Lines headed by an entry give the natural chain unless they say otherwise; changes in a name come on top. A line that says so, or that is headed by a name, gives the form on record, which may keep a tag or linker.
full-length wild-type HPK1 with NanoBit tag (Q92918-2, form named): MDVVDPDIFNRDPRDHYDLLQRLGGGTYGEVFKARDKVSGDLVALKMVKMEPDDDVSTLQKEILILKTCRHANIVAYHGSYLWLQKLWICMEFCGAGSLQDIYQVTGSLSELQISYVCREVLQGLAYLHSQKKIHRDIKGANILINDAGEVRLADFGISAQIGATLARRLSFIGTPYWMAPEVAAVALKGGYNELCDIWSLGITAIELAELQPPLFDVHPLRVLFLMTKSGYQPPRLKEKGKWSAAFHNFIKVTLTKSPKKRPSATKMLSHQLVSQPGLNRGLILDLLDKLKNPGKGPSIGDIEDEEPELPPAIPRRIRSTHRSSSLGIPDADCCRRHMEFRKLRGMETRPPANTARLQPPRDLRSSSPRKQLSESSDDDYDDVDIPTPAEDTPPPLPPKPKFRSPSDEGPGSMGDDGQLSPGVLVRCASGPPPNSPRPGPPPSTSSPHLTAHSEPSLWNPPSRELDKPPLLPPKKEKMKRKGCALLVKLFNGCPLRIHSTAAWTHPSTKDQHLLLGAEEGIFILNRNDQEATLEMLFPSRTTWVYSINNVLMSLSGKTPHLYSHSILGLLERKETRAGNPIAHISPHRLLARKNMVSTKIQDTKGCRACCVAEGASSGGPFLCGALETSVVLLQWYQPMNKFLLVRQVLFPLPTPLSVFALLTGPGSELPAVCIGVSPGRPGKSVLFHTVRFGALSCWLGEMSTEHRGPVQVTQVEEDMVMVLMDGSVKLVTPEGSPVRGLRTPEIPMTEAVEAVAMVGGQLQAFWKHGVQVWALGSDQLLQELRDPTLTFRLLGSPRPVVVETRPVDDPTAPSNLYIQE

- binding: no binding
Substance: full-length wild-type HPK1 with NanoBit tag (from UniProt Q92918-2 1-821) (enzyme)

Source: publication PMC11066036
